From PMC6422069
Results are given in words; binding and its absence hold for the method and conditions named. In cells and extracts the contact can be indirect. Some results given as binding are weak or reduced against the parent protein; the word gives no strength.

T1: MNV NS7 (murine norovirus MNV-1 (strain CW1)) (UniProt Q80J95)
T1 sequence: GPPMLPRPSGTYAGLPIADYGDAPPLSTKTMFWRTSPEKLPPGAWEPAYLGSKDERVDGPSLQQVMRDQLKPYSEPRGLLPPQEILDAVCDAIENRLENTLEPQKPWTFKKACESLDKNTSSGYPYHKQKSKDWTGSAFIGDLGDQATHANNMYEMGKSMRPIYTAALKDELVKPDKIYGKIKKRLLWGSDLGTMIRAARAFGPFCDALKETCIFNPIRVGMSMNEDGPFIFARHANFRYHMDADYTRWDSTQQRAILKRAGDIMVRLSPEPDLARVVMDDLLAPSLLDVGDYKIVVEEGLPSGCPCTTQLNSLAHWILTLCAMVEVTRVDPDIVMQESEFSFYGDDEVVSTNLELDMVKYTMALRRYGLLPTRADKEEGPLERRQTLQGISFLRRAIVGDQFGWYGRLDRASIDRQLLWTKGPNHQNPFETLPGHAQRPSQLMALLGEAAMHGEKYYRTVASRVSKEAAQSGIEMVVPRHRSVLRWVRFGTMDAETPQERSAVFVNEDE


Assays:
Test in all cases: co-IP; LUMIER assay: protein A fusion (bait) and Renilla luciferase fusion (prey) co-transfected in HEK-293T cells, lysed after 24 h (PBS pH 7.4, 1% Triton X-100, 0.1% BSA, 1 mM DTT, benzonase), bait precipitated on anti-protein A magnetic beads for 90 min at 4 °C, six washes, bound luciferase activity read; robust Z-scores; in quadruplicate
[1] = molecular target: MNV NS4 (murine norovirus MNV-1 (strain CW1)) (UniProt Q80J95)
[2] = molecular target: T1, MNV NS7 (murine norovirus MNV-1 (strain CW1))
[3] = molecular target: MNV NS3 (murine norovirus MNV-1 (strain CW1)) (UniProt Q80J95)
[4] = molecular target: MNV NS1/2 (murine norovirus MNV-1 (strain CW1)) (UniProt Q80J95)
[5] = molecular target: MNV NS5 (murine norovirus MNV-1 (strain CW1)) (UniProt Q80J95)

| Molecule | binding [1] | binding [2] | binding [3] | binding [4] | binding [5] |
| --- | --- | --- | --- | --- | --- |
| MNV NS4 (from UniProt Q80J95 706-870) | binds | – | – | – | – |
| MNV NS1/2 (from UniProt Q80J95 1-341) | binds | binds | binds | binds | – |
| MNV NS3 (from UniProt Q80J95 342-705) | binds | – | binds | – | – |
| MNV NS5 (from UniProt Q80J95 871-994) | – | binds | – | – | – |
| MNV NS7 (enzyme, UniProt Q80J95 1178-1687) GPPMLPRPSGTYAGLPIADYGDAPPLSTKTMFWRTSPEKLPPGAWEPAYLGSKDERVDGPSLQQVMRDQLKPYSEPRGLLPPQEILDAVCDAIENRLENTLEPQKPWTFKKACESLDKNTSSGYPYHKQKSKDWTGSAFIGDLGDQATHANNMYEMGKSMRPIYTAALKDELVKPDKIYGKIKKRLLWGSDLGTMIRAARAFGPFCDALKETCIFNPIRVGMSMNEDGPFIFARHANFRYHMDADYTRWDSTQQRAILKRAGDIMVRLSPEPDLARVVMDDLLAPSLLDVGDYKIVVEEGLPSGCPCTTQLNSLAHWILTLCAMVEVTRVDPDIVMQESEFSFYGDDEVVSTNLELDMVKYTMALRRYGLLPTRADKEEGPLERRQTLQGISFLRRAIVGDQFGWYGRLDRASIDRQLLWTKGPNHQNPFETLPGHAQRPSQLMALLGEAAMHGEKYYRTVASRVSKEAAQSGIEMVVPRHRSVLRWVRFGTMDAETPQERSAVFVNEDE | – | binds | – | – | – |
| MNV NS6 (enzyme, UniProt Q80J95 995-1177) APVSIWSRVVQFGTGWGFWVSGHVFITAKHVAPPKGTEIFGRKPGDFTVTSSGDFLKYYFTSAVRPDIPAMVLENGCQEGVVASVLVKRASGEMLALAVRMGSQAAIKIGSAVVHGQTGMLLTGSNAKAQDLGTIPGDCGCPYVYKKGNTWVVIGVHVAATRSGNTVIAATHGEPTLEALEFQ | no binding | no binding | no binding | no binding | no binding |
